In PMC4501731:
No constants are given. Whether binding was seen depends on the method and setting. In cells and extracts the contact can be indirect. Some binding calls cover weakened binding; strength is not graded here. For some of these results: Tags and fused reporters may be left off the sequences shown. Values belong to the molecule of their own block, whether it stands above or below them.

Amino acid sequences for entries named in this document (tags omitted).
UniProt Q04206: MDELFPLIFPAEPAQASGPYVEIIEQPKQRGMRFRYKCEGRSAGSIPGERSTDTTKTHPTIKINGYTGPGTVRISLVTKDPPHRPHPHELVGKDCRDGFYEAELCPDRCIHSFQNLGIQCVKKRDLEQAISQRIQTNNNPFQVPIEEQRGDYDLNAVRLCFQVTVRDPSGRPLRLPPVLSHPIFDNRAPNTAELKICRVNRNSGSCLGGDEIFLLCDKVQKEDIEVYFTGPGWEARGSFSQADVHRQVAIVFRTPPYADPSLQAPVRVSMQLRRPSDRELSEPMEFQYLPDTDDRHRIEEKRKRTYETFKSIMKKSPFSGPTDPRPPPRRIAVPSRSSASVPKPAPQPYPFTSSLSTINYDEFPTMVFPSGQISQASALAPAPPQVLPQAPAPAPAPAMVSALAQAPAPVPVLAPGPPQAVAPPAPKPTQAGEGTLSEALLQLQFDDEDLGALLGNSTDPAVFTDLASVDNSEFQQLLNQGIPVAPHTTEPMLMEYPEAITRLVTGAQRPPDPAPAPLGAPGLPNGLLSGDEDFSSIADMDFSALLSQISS

Experiments:
EGFP-dysbindin-1A = biological target: T1, EGFP-dysbindin-1A (UniProt Q96EV8); experiment: co-IP; cells expressing EGFP-dysbindin-1A or EGFP-dysbindin-1A del 2–41, with endogenous or overexpressed p65 (Fig B in S1 File); antibody used to precipitate not told in the text shown
T1 sequence: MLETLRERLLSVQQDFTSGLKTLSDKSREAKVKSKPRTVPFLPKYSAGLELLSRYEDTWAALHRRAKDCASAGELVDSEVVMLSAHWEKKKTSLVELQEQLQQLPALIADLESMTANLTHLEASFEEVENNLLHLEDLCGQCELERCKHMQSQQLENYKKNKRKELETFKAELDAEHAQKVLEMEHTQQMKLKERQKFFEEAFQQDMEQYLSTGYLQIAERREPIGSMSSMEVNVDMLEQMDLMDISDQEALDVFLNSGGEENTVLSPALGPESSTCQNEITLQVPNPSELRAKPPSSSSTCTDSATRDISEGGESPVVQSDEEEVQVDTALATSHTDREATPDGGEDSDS

[1] = biological target: T2, EGFP-dysbindin-1A del 2–41 (UniProt Q96EV8); experiment: as above
T2 sequence: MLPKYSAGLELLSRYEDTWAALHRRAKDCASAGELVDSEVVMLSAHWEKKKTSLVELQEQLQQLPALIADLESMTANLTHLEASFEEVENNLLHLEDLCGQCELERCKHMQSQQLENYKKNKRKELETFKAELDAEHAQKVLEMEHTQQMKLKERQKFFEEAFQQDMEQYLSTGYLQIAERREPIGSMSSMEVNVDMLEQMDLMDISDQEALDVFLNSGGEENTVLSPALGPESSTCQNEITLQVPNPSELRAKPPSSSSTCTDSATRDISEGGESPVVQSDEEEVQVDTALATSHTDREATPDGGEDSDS

GST-dysbindin-1A = biological target: T3, GST-dysbindin-1A (UniProt Q96EV8); experiment: pull-down; GST or GST-dysbindin-1A on Glutathione-Sepharose 4B, washed with PBS, incubated with His-p65 for 3 hours at 4°C, washed six times with PBS; immunoblot
T3 sequence: T1 sequence

[2] = biological target: T4, endogenous dysbindin-1A (human (endogenous in SH-SY5Y)) (UniProt Q96EV8); experiment: co-IP; endogenous proteins of SH-SY5Y cells; anti-dysbindin antibodies and protein G agarose overnight at 4°C; immunoblot for p65
T4 sequence: T1 sequence

EGFP-p65 [3] = biological target: EGFP-p65 (UniProt Q04206); experiment: co-IP; HEK293 cells co-transfected with Flag-dysbindin-1A and EGFP or EGFP-p65; whole lysate (50 mM Tris-HCl pH 7.5, 150 mM NaCl, 1% NP-40, 0.5% sodium deoxycholate); anti-GFP antibody and protein G agarose overnight at 4°C; immunoblot
EGFP-p65 [4] = biological target: EGFP-p65 (UniProt Q04206); experiment: co-IP; nuclear fraction of HEK293 cells transfected with EGFP or EGFP-p65 and Flag-dysbindin-1A; anti-GFP antibody; immunoblot
EGFP-p65 [5] = biological target: EGFP-p65 (UniProt Q04206); experiment: co-IP; cytoplasmic fraction of HEK293 cells transfected with EGFP or EGFP-p65 and Flag-dysbindin-1A; anti-GFP antibody; immunoblot

binding (EGFP-dysbindin-1A): binds
binding [1]: binds
Molecule: endogenous p65 (cells of Fig B in S1 File) (from UniProt Q04206 1-551)

binding (GST-dysbindin-1A): binds
Molecule: His-p65 (from UniProt Q04206 1-551)

binding [2]: binds
Molecule: endogenous p65 (from UniProt Q04206 1-551)

binding (EGFP-p65 [3]): binds
binding (EGFP-p65 [4]): binds
B1: Flag-dysbindin-1A (protein, UniProt Q96EV8-1 1-351)
chain: T1 sequence
binding (EGFP-p65 [5]): no binding (condition: in the cytosolic fraction)
